# Laboratory results taken from PubChem BioAssay AID2451 (National Center for Advancing Translational Sciences (NCATS), 2010).
# Screen size: about 290,000 compounds; about 2,100 (0.72%) were called active. This list was built around the results that the source calls inconclusive (neither active nor inactive); the mix of calls is not that of the screen. Calls come from the whole dose curve; as a rule, active = well fitted inhibition curve with a large enough effect; inconclusive = small, poorly fitted or top-dose-only effect, or effect the other way; inactive = flat fitted curve, though single readings scatter. A potency beside an inconclusive call is a rough fit, not a confirmed value.
# Target: Fructose-bisphosphate aldolase (Giardia intestinalis (strain ATCC 50803 / WB clone C6)) (UniProt A8B2U2)
# Chain of UniProt A8B2U2 (A8B2U2 whole entry, looked up): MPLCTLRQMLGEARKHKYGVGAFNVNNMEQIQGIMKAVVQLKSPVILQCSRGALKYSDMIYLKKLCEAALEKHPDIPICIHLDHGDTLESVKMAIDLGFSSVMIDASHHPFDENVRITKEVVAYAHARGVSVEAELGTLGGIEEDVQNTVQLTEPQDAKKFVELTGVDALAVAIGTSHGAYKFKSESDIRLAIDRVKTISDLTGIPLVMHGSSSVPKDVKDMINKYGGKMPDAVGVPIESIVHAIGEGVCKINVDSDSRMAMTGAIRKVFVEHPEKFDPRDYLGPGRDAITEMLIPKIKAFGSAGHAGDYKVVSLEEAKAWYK
# Assay: qHTS Assay for Inhibitors of Fructose-1,6-bisphosphate Aldolase from Giardia Lamblia; note: nearly all actives have a fitted effect of over 55% in size
# Settings: purified Giardia FBPA; activity, negative = inhibition: at 59.6 µM (top of the series) unless noted
# Summary of the method: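 Giardia FBPA (40 nM reagent) was preincubated 10 min at RT with compound (up to 57.5 uM final), then substrate plus GAPDH/TPI/NAD/arsenate coupling system with diaphorase/resazurin was added; resorufin fluorescence (525/598 nm) was read after 20 min.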
# % is set by controls: 0 for no effect and ±100 for the full control effect; potency is the fitted concentration of half-maximal effect; tags give direction and shape of the fitted curve.
Compound,"activity, negative = inhibition",Potency
COc1cc(/C=N/NC(=O)C(=O)/C=C2\NC3(CCCC3)Cc3ccccc32)ccc1O,inactive: -3.34%,–
O=C(Nc1ccc(N2CCCC2)cc1)C(Cl)c1ccccc1 (stereo unspecified),–,"inconclusive: 15.8 µM [inhibitor, partial curve]"
CCOc1cc(/C=N/NC(=O)c2ccccn2)ccc1OC(=O)c1cccs1,inactive: -0.76%,–
CC(C)(C)NNC(=S)Nc1cccc(F)c1,–,"inconclusive: 9.98 µM [inhibitor, partial curve]"
CCc1ccccc1N1CSC2=C(C#N)C(c3cc(OC)c(OC)cc3OC)CC(=O)N2C1 (stereo unspecified),–,active: 4.46 µM
Cc1cc(SCC(=O)N/N=C/c2ccc(O)c(O)c2)c(C)cc1Br,–,"inconclusive: 12.6 µM [inhibitor, partial curve]"
COc1cccc(OCc2cc(C(=O)NCC3CCCCC3)no2)c1,inactive: -1.45%,–
Cc1ccc(C(=O)Nc2ccc(Oc3ccc(C(=O)O)c(C(=O)O)c3)cc2)cc1C,–,"inconclusive: 12.6 µM [inhibitor, partial curve]"
COc1ccc(/C=N/OCC(=O)N=Nc2c(O)[nH]c3ccc(Br)cc23)cc1OC,inactive: -2.9%,–
CC(C)C(c1nnnn1C1CCCC1)N1CCCc2ccccc21 (stereo unspecified),inactive: -8.82%,–
Cc1ccc(C)c(N2CCN(C(=O)CCCOc3cc(=O)n(C)c4ccccc34)CC2)c1,inactive: 0.757%,–
CC(=C1C(=O)c2ccccc2C1=O)N1CCN(c2ccccn2)CC1,–,"inconclusive: 9.98 µM [inhibitor, partial curve]"
O=C(CCc1c[nH]c2ccccc12)OCc1cccc([N+](=O)[O-])c1,inactive: 1.6%,–
CCCn1cc(CN2CCC(n3nccc3NC(=O)c3ccc4c(c3)OCO4)CC2)c(C)n1,inactive: 2.87%,–
Cc1cc(C)cc(N2C(=O)CSC2c2cccs2)c1 (stereo unspecified),–,"inconclusive: 22.3 µM [inhibitor, partial curve]"
COc1ccc2cc1Oc1ccc(cc1)CC1c3cc(c(OC)cc3CCN1C)Oc1c(OC)c(OC)c(OC)c3c1C(C2)N(C)CC3 (stereo unspecified),–,"inconclusive: 17.7 µM [inhibitor, single point]"
CC(=O)SC(C[N+](=O)[O-])c1cn(C(C)=O)c2ccccc12 (stereo unspecified),–,"inconclusive: 12.6 µM [inhibitor, partial curve]"
C[C@@H](CC#N)CN1CC[C@H](C(C)(C)C)CCC1=O,–,"inconclusive: 28.2 µM [inhibitor, single point]"
CCSc1nnc(NC(=O)[C@@H](NC(=O)c2ccccc2F)C(C)C)s1,–,"inconclusive: 15.8 µM [inhibitor, partial curve]"
Cc1ccc(-c2ccccc2NC(=O)CS(=O)CC(=O)Nc2ccc(C)c(Cl)c2)o1 (stereo unspecified),inactive: 6.32%,–
Cc1ccc(Cl)cc1N(CC(=O)NC(C)c1ccccc1)S(C)(=O)=O (stereo unspecified),inactive: 7.07%,–
O=C(C1=C[C@H](c2ccc3c(c2)OCO3)C[C@H](OCc2ccc(CO)cc2)O1)N1CCN(Cc2ccc3c(c2)OCO3)CC1,inactive: -13.8%,–
Cc1cc(C)c2c(CCl)cc(=O)oc2c1,inactive: -7.59%,–

Compound,"activity, negative = inhibition",Potency
O=S(=O)(c1ccc(Cl)s1)N1CCN(C/C=C/c2ccccc2)CC1,–,"inconclusive: 17.7 µM [inhibitor, partial curve]"
CCN(CC)S(=O)(=O)c1ccc(N=Cc2c(C)c(C#N)c(=O)n(C)c2O)cc1,–,"inconclusive: 15.8 µM [inhibitor, partial curve]"
Cc1cc(F)ccc1S(=O)(=O)Nc1ccc(O)c(Sc2ncn[nH]2)c1,–,"inconclusive: 22.4 µM [inhibitor, single point]"
COc1ccc(S(=O)(=O)Nc2ccc(S(=O)(=O)Nc3nccs3)cc2)cc1,inactive: 6.83%,–
COC(=O)c1c(NC(=O)C(C)C)sc2c1CCN(Cc1ccccc1)C2,–,"inconclusive: 20 µM [inhibitor, partial curve]"
Cc1ccccc1-c1cc(-c2ccccc2O)n[nH]1,inactive: -3.52%,–
Cc1c(CCOC(=O)c2ccc([N+](=O)[O-])cc2)sc[n+]1CC(=O)c1ccccc1,inactive: 6.71%,–
Cc1c(C(=O)Nc2nnc(C(F)(F)F)s2)oc2ccccc12,–,"inconclusive: 17.7 µM [inhibitor, partial curve]"
Cc1ccc(S(=O)(=O)NP(=O)(Oc2ccccc2)Oc2ccccc2)cc1,–,"inconclusive: 17.7 µM [activator, partial curve]"
COc1ccc2c(-c3ccccc3)cc(N3CCOCC3)nc2c1,–,"inconclusive: 15.8 µM [inhibitor, partial curve]"
Cc1ccc(C(OCC(O)CNCc2ccc(F)cc2)c2ccccc2)cc1 (stereo unspecified),–,"inconclusive: 25.1 µM [inhibitor, partial curve]"
FC(F)(F)c1ccc(C2[C@H]3CN(Cc4ccc(-c5ccccc5)cc4)[C@H](c4ccccc4)C34CC2(c2cccnc2)C4)cc1 (stereo partly specified),–,inactive
Cc1ccc(S(=O)(=O)N2CCC[C@H]2C(=O)OCC(=O)c2ccc3c(c2)NC(=O)CO3)cc1,–,"inconclusive: 7.06 µM [inhibitor, single point]"
C(=N\NC1=NCCN1)/c1ccncc1,–,"inconclusive: 28.2 µM [inhibitor, single point]"
Cc1ccc(OCC(=O)NC2CCCCCC2)cc1C,inactive: 0.791%,–
N#Cc1c(-c2ccncc2)c2c([nH]c1=S)CCCC2,–,"inconclusive: 2.51 µM [inhibitor, full curve]"
COc1ccc(Cl)cc1NC(=S)N(Cc1ccc(C(=O)O)cc1)Cc1ccc(OC)c(OC)c1,–,"inconclusive: 31.5 µM [inhibitor, single point]"
CN(C)c1ccc(Nc2nc(N)c3ccccc3n2)cc1,–,"inconclusive: 14.1 µM [inhibitor, partial curve]"
CC1Cc2ccccc2N1C(=O)COC(=O)c1ccc(Cl)nc1 (stereo unspecified),inactive: 1.75%,–
O=C(O)Cn1cnc2c(=S)nc[nH]c21,–,active: 3.54 µM
CC(C)CC1=NN2C(=N)/C(=C\c3coc4ccccc4c3=O)C(=O)N=C2S1,–,"inconclusive: 17.7 µM [inhibitor, single point]"
COc1cc(CC(=O)OCC(=O)Nc2cccc([N+](=O)[O-])c2)cc(OC)c1OC,–,"inconclusive: 5 µM [inhibitor, single point]"
Cc1cccc(N2CCN(c3cc(C)nc4nnnn34)CC2C)c1 (stereo unspecified),–,"inconclusive: 25.1 µM [inhibitor, single point]"
